Among all 39,000 compounds or so, about 220 (0.56%) showed activity. The list shows a part of the results.
The compounds below were run on Escherichia coli K-12 BW25113 (assay: relative growth (OD600 normalised to plate interquartile mean) (fraction); higher = less growth inhibition, active = 0.2 or less). Conditions: 50 µM; LB; incubation time: overnight (16-24 h).
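Further: static incubation at 37 °C against the wild-type strain, values averaged over two biological replicates.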

Row | SMILES | relative growth
1 | Cc1ccc(S(=O)(=O)N(C)C[C@H]2Oc3cc(C#Cc4ccncc4)ccc3S(=O)(=O)N([C@@H](C)CO)C[C@@H]2C)cc1 | inactive: 1.05
2 | O=C(O)c1cc(=O)cc[nH]1 | inactive: 1.01
3 | COc1ccc(cc1)S(=O)(=O)N1C[C@]2(C1)CN([C@@H](CO)c1c2c2ccc(cc2n1C)OC)C(=O)CN(C)C | inactive: 0.921
4 | C[C@H](CO)N1C[C@H](C)[C@H](CN(C)Cc2ccc(Cl)c(Cl)c2)Oc2ccc(NC(=O)Nc3ccc(C(F)(F)F)cc3)cc2CC1=O | inactive: 1
5 | C[C@H](CO)N1C[C@H](C)[C@H](CN(C)Cc2ccc(-c3ccccc3)cc2)Oc2c(NC(=O)Nc3ccc4c(c3)OCO4)cccc2C1=O | inactive: 1.01
6 | C[C@H]1CN([C@@H](C)CO)C(=O)c2cccc(NS(=O)(=O)c3cccs3)c2O[C@@H]1CN(C)S(=O)(=O)c1ccccc1 | inactive: 0.982
7 | C[C@@H]1CN([C@@H](C)CO)C(=O)c2cc(NC(=O)c3ccncc3)ccc2O[C@@H]1CN(C)S(=O)(=O)c1ccc(F)cc1 | inactive: 1.03
8 | C[C@@H]1CN([C@H](C)CO)C(=O)Cc2cc(NC(=O)Nc3cccc4ccccc34)ccc2O[C@@H]1CN(C)Cc1ccccc1 | inactive: 1.02
9 | COC[C@H]1CN(C(=O)CS(C)(=O)=O)Cc2nnn(CC3CC3)c21 | inactive: 0.996
10 | CN(C)CCC=C1c2ccccc2COc2ccc(CC(=O)O)cc21.Cl | active: 0.0442
11 | COc1ccc(CN(C)C[C@@H]2OCCCC[C@@H](C)Oc3ccc(NC(=O)CCCCCC(=O)Nc4ccccc4N)cc3C(=O)N([C@H](C)CO)C[C@@H]2C)cc1 | inactive: 0.986
12 | CN(C)C(=O)c1ccc(CO)cc1 | inactive: 0.983
13 | O=C(C[C@@H]1CC[C@H]2[C@@H](COC[C@@H](O)CN2S(=O)(=O)c2cccc(F)c2)O1)NCc1ccncn1 | inactive: 0.994
14 | Cc1ccc(S[C@]2(C(=O)NC(C)C)CC(=O)N(Cc3cc(C(F)(F)F)cc(C(F)(F)F)c3)[C@@H]2c2ccc(CO)cc2)cc1 | inactive: 1
15 | C[C@@H](O)C(=O)O.N | inactive: 1
16 | Cc1cc(C)n(C(=O)Cn2cc([N+](=O)[O-])cn2)n1 | inactive: 0.942
17 | Cc1noc(C)c1S(=O)(=O)Nc1ccc2c(c1)CC(=O)N([C@@H](C)CO)C[C@H](C)[C@H](CN(C)S(=O)(=O)c1cn(C)cn1)O2 | inactive: 1.01
18 | C[C@H](CO)N1C[C@H](C)[C@@H](CN(C)S(=O)(=O)c2ccc(Cl)cc2)Oc2ccc(NC(=O)Nc3cccc4ccccc34)cc2CC1=O | inactive: 1.03
19 | CN1CCN(C(=O)C[C@@H]2CC[C@H]3[C@@H](COC[C@H](O)CN3CC3CCCC3)O2)CC1 | inactive: 0.999
20 | C[C@@H]1CN([C@@H](C)CO)C(=O)Cc2cc(NC(=O)CCCCCC(=O)Nc3ccccc3N)ccc2O[C@@H]1CN(C)CC1CCCCC1 | inactive: 0.996

Row | SMILES | relative growth
21 | C[C@H]1CN([C@@H](C)CO)C(=O)c2cccc(NC(=O)Nc3ccc(C(F)(F)F)cc3)c2O[C@H]1CN(C)Cc1ccc(C(=O)Nc2ccccc2N)cc1 | inactive: 1.05
22 | CN1CCN(C(=O)C[C@@H]2CC[C@@H]3[C@H](COC[C@@H](O)CN3CC3CCCC3)O2)CC1 | inactive: 0.987
23 | O=C(C[C@H]1C[C@H]2c3cc(NC(=O)Cc4ccncc4)ccc3O[C@H]2[C@H](CO)O1)NCc1cccc(F)c1 | inactive: 0.916
24 | C[C@H]1CN([C@@H](C)CO)C(=O)Cc2cc(NS(=O)(=O)c3ccc(F)cc3)ccc2O[C@H]1CN(C)S(=O)(=O)c1ccccc1 | inactive: 0.99
25 | C[C@@H]1CN([C@H](C)CO)C(=O)c2cc(NC(=O)CCCCCC(=O)Nc3ccccc3N)ccc2O[C@H]1CN(C)C(=O)Nc1ccc(F)cc1 | inactive: 1.04
26 | COc1ccc(CN(C)C[C@H]2OCCCC[C@@H](C)Oc3ccc(NC(=O)Cc4ccccc4)cc3C(=O)N([C@@H](C)CO)C[C@@H]2C)cc1 | inactive: 0.99
27 | CCOC(=O)N(C)C[C@@H]1OCc2cnnn2CCCC(=O)N([C@@H](C)CO)C[C@H]1C | inactive: 1.03
28 | C[C@@H]1CCCCO[C@@H](CN(C)CC2CC2)[C@H](C)CN([C@@H](C)CO)C(=O)c2cc(NC(=O)Nc3cccc4ccccc34)ccc2O1 | inactive: 1
29 | Cc1noc(C)c1NC(=O)N(C)C[C@H]1Oc2ccc(NS(=O)(=O)c3ccccc3)cc2C(=O)N([C@@H](C)CO)C[C@H]1C | inactive: 0.971
30 | Cc1ccc(S(=O)(=O)N(C)C[C@@H]2Oc3ccc(NC(=O)NC(C)C)cc3CC(=O)N([C@H](C)CO)C[C@@H]2C)cc1 | inactive: 0.972
31 | CS(=O)(=O)n1cc2c(n1)CN([C@H]1CO[C@H](c3cc(F)ccc3F)[C@@H](N)C1)C2 | inactive: 0.994
32 | COc1cc(/C=C/c2cc(/C=C/c3ccc(O)c(OC)c3)n(Cc3ccc4c(c3)OCO4)c(=S)n2)ccc1O | inactive: 1.04
33 | CCCC(=O)Nc1ccc2c(c1)OC[C@H](C)N(Cc1ccc(-c3ccccn3)cc1)C[C@H](C)[C@H](OC)CN(C)C2=O | inactive: 1.01
34 | C[C@@H]1CCCCO[C@@H](CN(C)C)[C@@H](C)CN([C@H](C)CO)C(=O)c2cc(NC(=O)CCCCCC(=O)Nc3ccccc3N)ccc2O1 | inactive: 1.02
35 | COc1ccc(NC(=O)N(C)C[C@H]2Oc3c(NC(=O)CCCCCC(=O)Nc4ccccc4N)cccc3C(=O)N([C@@H](C)CO)C[C@H]2C)cc1 | inactive: 1
36 | C[C@@H]1CN([C@@H](C)CO)C(=O)CCCn2nncc2CO[C@@H]1CN(C)S(C)(=O)=O | inactive: 1.02
37 | COCCOC(=O)N1C(=O)[C@@]2(c3cc(C#CC4(O)CCCCCC4)ccc31)[C@H](c1ccccc1OCCO)N1[C@H](c3ccccc3)[C@H](c3ccccc3)OC(=O)[C@H]1[C@@H]2C(=O)N1CCc2cc(OC)c(OC)cc2C1 | inactive: 1.01
38 | Cc1ccc(S(=O)(=O)N(C)C[C@H]2Oc3c(NS(=O)(=O)c4ccc(F)cc4)cccc3C(=O)N([C@H](C)CO)C[C@@H]2C)cc1 | inactive: 1.03
39 | Nc1cccc(Cn2cncn2)c1 | inactive: 0.937
40 | C[C@H]1CCCCO[C@@H](CN(C)C(=O)Nc2ccc(F)cc2)[C@@H](C)CN([C@@H](C)CO)C(=O)c2cc(NC(=O)C3CCCCC3)ccc2O1 | inactive: 0.996

Row | SMILES | relative growth
41 | Cc1ccc(S[C@]2(C(=O)NCC(F)(F)F)CC(=O)N(C3Cc4ccccc4C3)[C@@H]2c2ccc(CO)cc2I)cc1 | inactive: 1
42 | C[C@@H]1CN([C@@H](C)CO)C(=O)CCCn2cc(nn2)CO[C@@H]1CN(C)C(=O)c1ccc(N2CCN(C)CC2)cc1 | inactive: 1.02
43 | C[C@@H]1CN([C@@H](C)CO)C(=O)c2cccc(NC(=O)Nc3ccccc3)c2O[C@@H]1CN(C)CC1CCCCC1 | inactive: 1.01
44 | CC1=NN(c2ccc(C)c(C)c2)C(=O)C1=NNc1cccc(-c2cccc(C(=O)O)c2)c1O | inactive: 1.01
45 | COc1cccc(-c2ccc3c(c2)O[C@H](CN(C)C(=O)C2CCOCC2)[C@@H](C)CN([C@H](C)CO)S3(=O)=O)c1 | inactive: 0.993
46 | Cc1cc(C(=O)Nc2cccc3c2O[C@H](CN(C)Cc2ccc(C(=O)O)cc2)[C@@H](C)CN([C@@H](C)CO)C3=O)n(C)n1 | inactive: 0.926
47 | C[C@H](CO)N1C[C@H](C)[C@H](CN(C)S(=O)(=O)c2ccc(F)cc2)OCCCC[C@H](C)Oc2ccc(NC(=O)NC3CCCCC3)cc2C1=O | inactive: 0.989
48 | Cc1noc(C)c1S(=O)(=O)Nc1ccc2c(c1)C(=O)N([C@@H](C)CO)C[C@H](C)[C@@H](CN(C)Cc1ccccc1)OCCCC[C@@H](C)O2 | inactive: 0.992
49 | COc1ccc(CNC(=S)NCCO)cc1 | inactive: 1.02
50 | COC(=O)c1c(CC[C@@H](CO)NC(=O)N[C@H](Cc2ccccc2)Cn2cc(-c3ccccc3N)nn2)oc(C(C)=O)c1C(=O)OC | inactive: 1.01
51 | Cc1ccc(S(=O)(=O)Nc2ccc3c(c2)C(=O)N([C@H](C)CO)C[C@H](C)[C@@H](CN(C)Cc2ccccc2)OCCCC[C@H](C)O3)cc1 | inactive: 1.04
52 | CCS(=O)(=O)Nc1ccc2c(c1)C(=O)N(C)[C@H]1CC[C@H](CC(=O)NCCOC)O[C@H]1CO2 | inactive: 0.995
53 | C[C@H](O)C#Cc1ccc2c(c1)O[C@@H](CN(C)C(=O)Cc1ccccn1)[C@@H](C)CN([C@@H](C)CO)S2(=O)=O | inactive: 0.996
54 | CC(C)NC(=O)Nc1cccc2c1O[C@H](CN(C)Cc1ccc3c(c1)OCO3)[C@@H](C)CN([C@H](C)CO)C2=O | inactive: 0.983
55 | Cc1ccc(S(=O)(=O)N(C)C[C@@H]2OCCCC[C@@H](C)Oc3ccc(NC(=O)Nc4ccc(C(F)(F)F)cc4)cc3C(=O)N([C@@H](C)CO)C[C@@H]2C)cc1 | inactive: 1.02
56 | Cc1ccc(S(=O)(=O)N(C)C[C@@H]2Oc3ccc(NS(C)(=O)=O)cc3CC(=O)N([C@@H](C)CO)C[C@@H]2C)cc1 | inactive: 1.02
57 | C[C@@H]1CN([C@@H](C)CO)C(=O)CCCn2nncc2CO[C@H]1CN(C)C(=O)Nc1cccc(Oc2ccccn2)c1 | inactive: 1.01
58 | O=C1O[C@H](c2ccccc2)[C@H](c2ccccc2)N2[C@H]1[C@@H](C(=O)NC[C@H](O)c1ccccc1)[C@]1(C(=O)Nc3ccc(C#CC4(O)CCCCCC4)cc31)[C@H]2c1ccc(O)cc1 | inactive: 1
59 | COc1ccc(NC(=O)Nc2ccc3c(c2)CC(=O)N([C@H](C)CO)C[C@@H](C)[C@@H](CN(C)S(=O)(=O)c2c(C)noc2C)O3)cc1 | inactive: 0.969

— the supplement of paper PMC9446081
